From patent US20090311253A1 (AbbVie / Abbott, published 2009)

How the values were obtained:
Recombinant Human IL-1β [1] = biological target: T1, Recombinant Human IL-1β (human, UniProt P01584 117-269); assay: direct bind ELISA
T1 construct: also called IL-1b; IL-1B
Protocol: (§1) Enzyme Linked Immunosorbent Assays to screen for antibodies that bind a desired target antigen were performed as follows. High bind ELISA plates (Corning Costar # 3369, Acton, Mass.) were coated with 100 μL/well of 10 μg/ml of desired target antigen (R&D Systems, Minneapolis, Minn.) or desired target antigen extra-cellular domain/FC fusion protein (R&D Systems, Minneapolis, Minn.) or monoclonal mouse anti-polyhistidine antibody (R&D Systems # MAB050, Minneapolis, Minn.) in phosphate buffered saline (10×PBS, Abbott Bioresearch Center, Media Prep# MPS-073, Worcester, Mass.) overnight at 4° C. Plates were washed four times with PBS containing 0.02% Tween 20. Plates were blocked by the addition of 300 μL/well blocking solution (non-fat dry milk powder, various retail suppliers, diluted to 2% in PBS) for ½ hour at room temperature. Plates were washed four times after blocking with PBS containing 0.02% Tween 20.
(§2) Plates were washed 4 times with PBS containing 0.02% Tween 20.
(§3) One hundred microliters of enhanced TMB solution (Neogen Corp. #308177, K Blue, Lexington, Ky.) was added to each well and incubated for 10 minutes at room temperature. The reaction was stopped by the addition of 50 μL 1N sulphuric acid. Plates were read spectrophotometrically at a wavelength of 450 nm.

Recombinant Human VEGF [2] = biological target: T2, Recombinant Human VEGF (human, UniProt P15692-4 27-191); assay: direct bind ELISA
T2 construct: also called VEGF165
T2 sequence (looked up): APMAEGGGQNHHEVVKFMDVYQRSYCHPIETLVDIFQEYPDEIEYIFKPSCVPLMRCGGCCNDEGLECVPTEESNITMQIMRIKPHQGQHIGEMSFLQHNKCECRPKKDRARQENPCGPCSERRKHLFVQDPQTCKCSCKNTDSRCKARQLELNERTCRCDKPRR
Protocol: as §1, §2, §3

Recombinant Human IL-1β [3] = biological target: T1, Recombinant Human IL-1β; assay: cell-based or functional assay
Recombinant Human IL-1β [4] = biological target: T1, Recombinant Human IL-1β; assay: Biacore SPR
Protocol: (§4) The BIACORE assay (Biacore, Inc, Piscataway, N.J.) determines the affinity of antibodies or DVD-Ig with kinetic measurements of on-rate and off-rate constants. Binding of antibodies or DVD-Ig to a target antigen (for example, a purified recombinant target antigen) is determined by surface plasmon resonance-based measurements with a BiacoreR 1000 or 3000 instrument (Biacore® AB, Uppsala, Sweden) using running HBS-EP (10 mM HEPES [pH 7.4], 150 mM NaCl, 3 mM EDTA, and 0.005% surfactant P20) at 25° C. All chemicals are obtained from Biacore® AB (Uppsala, Sweden) or otherwise from a different source as described in the text. For example, approximately 5000 RU of goat anti-mouse IgG, (Fcγ), fragment specific polyclonal antibody (Pierce Biotechnology Inc, Rockford, Ill.) diluted in 10 mM sodium acetate (pH 4.5) is directly immobilized across a CM5 research grade biosensor chip using a standard amine coupling kit according to manufacturer's instructions and procedures at 25 μg/ml. Unreacted moieties on the biosensor surface are blocked with ethanolamine. Modified carboxymethyl dextran surface in flowcell 2 and 4 is used as a reaction surface. Unmodified carboxymethyl dextran without goat anti-mouse IgG in flow cell 1 and 3 is used as the reference surface. For kinetic analysis, rate equations derived from the 1:1 Langmuir binding model are fitted simultaneously to association and dissociation phases of all eight injections (using global fit analysis) with the use of Biaevaluation 4.0.1 software. Purified antibodies or DVD-Ig are diluted in HEPES-buffered saline for capture across goat anti-mouse IgG specific reaction surfaces. Antibodies or DVD-Ig to be captured as a ligand (25 μg/ml) are injected over reaction matrices at a flow rate of 5 μl/min. The association and dissociation rate constants, kₒₙ (M⁻¹s⁻¹) and koff (s⁻¹) are determined under a continuous flow rate of 25 μl/min. Rate constants are derived by making kinetic binding measurements at different antigen concentrations ranging from […]. The equilibrium dissociation constant (M) of the reaction between antibodies or DVD-Igs and the target antigen is then calculated from the kinetic rate constants by the following formula: KD=koff/kₒₙ. Binding is recorded as a function of time and kinetic rate constants are calculated.

Recombinant Human VEGF [5] = biological target: T2, Recombinant Human VEGF; assay: Biacore SPR
Protocol: as §4

Recombinant Human IL-17 [6] = biological target: T3, Recombinant Human IL-17 (human, UniProt Q16552 20-155, limits assumed); assay: direct bind ELISA
T3 construct: bought; also called IL-17A
Protocol: as §1, §2, §3

[7] = biological target: T4, Recombinant Human IL-6 sR (human, UniProt P08887 20-358, limits assumed); assay: direct bind ELISA
T4 construct: domain: IL-6 sR; soluble receptor; also called IL-6R
T4 sequence (looked up): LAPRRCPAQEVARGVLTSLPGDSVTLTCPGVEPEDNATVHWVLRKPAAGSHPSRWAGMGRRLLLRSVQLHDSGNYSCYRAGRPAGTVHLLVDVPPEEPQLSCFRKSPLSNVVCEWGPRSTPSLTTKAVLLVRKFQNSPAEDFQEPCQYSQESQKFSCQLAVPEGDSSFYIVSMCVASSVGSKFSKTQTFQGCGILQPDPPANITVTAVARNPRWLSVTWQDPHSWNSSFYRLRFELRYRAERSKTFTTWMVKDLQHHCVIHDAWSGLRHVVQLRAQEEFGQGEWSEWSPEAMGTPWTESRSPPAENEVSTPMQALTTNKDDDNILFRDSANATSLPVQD
Protocol: as §1, §2, §3

IL-6R on cells [8] = biological target: T5, IL-6R on cells (UniProt P08887 20-468, limits assumed); assay: flow cytometry on cells, 2 µg/mL
T5 construct: whole, on cells
T5 sequence (looked up): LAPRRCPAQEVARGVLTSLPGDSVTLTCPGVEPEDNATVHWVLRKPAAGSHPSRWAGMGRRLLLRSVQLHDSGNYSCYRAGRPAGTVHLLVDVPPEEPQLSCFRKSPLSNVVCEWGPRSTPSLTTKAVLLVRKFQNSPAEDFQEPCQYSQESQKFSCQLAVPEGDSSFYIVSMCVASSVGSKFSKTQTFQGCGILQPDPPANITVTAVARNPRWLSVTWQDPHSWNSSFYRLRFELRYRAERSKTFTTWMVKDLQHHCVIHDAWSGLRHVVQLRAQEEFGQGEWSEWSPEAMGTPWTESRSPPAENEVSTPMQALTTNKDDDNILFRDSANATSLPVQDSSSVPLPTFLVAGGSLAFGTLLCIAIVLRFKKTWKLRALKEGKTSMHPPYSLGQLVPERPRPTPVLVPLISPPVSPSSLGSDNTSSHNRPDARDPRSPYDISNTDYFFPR
Protocol: Stable cell lines overexpressing a cell-surface antigen of interest or human tumor cell lines were harvested from tissue culture flasks and resuspended in phosphate buffered saline (PBS) containing 5% fetal bovine serum (PBS/FBS). Prior to staining, human tumor cells were incubated on ice with (100 μl) human IgG at 5 μg/ml in PBS/FCS. 1−5×10⁵ cells were incubated with antibody or DVD-Ig (2 μg/mL) in PBS/FBS for 30-60 minutes on ice. […] After 30 minutes incubation on ice, cells were washed twice and resuspended in PBS/FBS. Fluorescence was measured using a Becton Dickinson FACSCalibur (Becton Dickinson, San Jose, Calif.).
The geometric mean is the n root of the multiplication product of n fluorescent signals (a1×a2×a3 . . . an). With log-transformed data the geometric mean is used to normalize the weighting of the data distribution.

IL-6R on cells [9] = biological target: T5, IL-6R on cells; assay: cell-based or functional assay
Recombinant Human IL-17 [10] = biological target: T3, Recombinant Human IL-17; assay: Biacore SPR
Protocol: as §4

[11] = biological target: T4, Recombinant Human IL-6 sR; assay: Biacore SPR
Protocol: as §4

Recombinant Human IL-17 [12] = biological target: T3, Recombinant Human IL-17; assay: cell-based or functional assay
Recombinant Human IL-13 [13] = biological target: T6, Recombinant Human IL-13 (human, UniProt P35225 fragment, limits assumed); assay: direct bind ELISA
Protocol: as §1, §2, §3

Recombinant Human IL-9 = Recombinant Human IL-9 (human, UniProt P15248); assay: Biacore SPR
Sequence of Recombinant Human IL-9 (P15248 19-144 limits assumed): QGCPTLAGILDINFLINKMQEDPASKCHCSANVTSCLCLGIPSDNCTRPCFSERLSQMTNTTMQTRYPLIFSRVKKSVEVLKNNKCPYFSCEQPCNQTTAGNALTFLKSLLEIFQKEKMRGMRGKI
Protocol: as §4

Recombinant Human IL-13 [14] = biological target: T6, Recombinant Human IL-13; assay: Biacore SPR
T6 sequence (P35225 35-146 limits assumed): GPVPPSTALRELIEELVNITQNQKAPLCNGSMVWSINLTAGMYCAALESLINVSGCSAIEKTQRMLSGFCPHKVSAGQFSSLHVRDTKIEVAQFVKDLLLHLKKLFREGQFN
Protocol: as §4

Recombinant Human IL-13 [15] = biological target: T6, Recombinant Human IL-13; assay: cell-based or functional assay

B1: DVD123 (bispecific antibody, human IgG1, kappa)
heavy: QVQLVESGGGVVQPGRSLRLSCAASGFTFSVYGMNWVRQAPGKGLEWVAIIWYDGDNQYYADSVKGRFTISRDNSKNTLYLQMNGLRAEDTAVYYCARDLRTGPFDYWGQGTLVTVSSASTKGPEVQLVESGGGLVQPGGSLRLSCAASGYTFTNYGMNWVRQAPGKGLEWVGWINTYTGEPTYAADFKRRFTFSLDTSKSTAYLQMNSLRAEDTAVYYCAKYPHYYGSSHWYFDVWGQGTLVTVSS[left out - human IgG1 constant region]
light: EIVLTQSPDFQSVTPKEKVTITCRASQSIGSSLHWYQQKPDQSPKLLIKYASQSFSGVPSRFSGSGSGTDFTLTINSLEAEDAAAYYCHQSSSLPFTFGPGTKVDIKRTVAAPDIQMTQSPSSLSASVGDRVTITCSASQDISNYLNWYQQKPGKAPKVLIYFTSSLHSGVPSRFSGSGSGTDFTLTISSLQPEDFATYYCQQYSTVPWTFGQGTKVEIKRTVAAPSVFIFPPSDEQLKSGTASVVCLLNNFYPREAKVQWKVDNALQSGNSQESVTEQDSKDSTYSLSSTLTLSKADYEKHKVYACEVTHQGLSSPVTKSFNRGEC
notes: outer AB032, inner AB014; vectors V1, V2
EC50 (Recombinant Human IL-1β [1]): 8.2 nM
EC50 (Recombinant Human VEGF [2]): 131 nM
IL-1β Neutralization Assay EC50 (MRC5 cells, hIL-8) (Recombinant Human IL-1β [3]): 0.023 nM
Kd (Recombinant Human IL-1β [4]): 0.0338 nM
koff (Recombinant Human IL-1β [4]): 4.21e-05 s⁻¹
kon (Recombinant Human IL-1β [4]): 1.25e+06 M⁻¹ s⁻¹
Kd (Recombinant Human VEGF [5]): 1 nM
koff (Recombinant Human VEGF [5]): 3.71e-05 s⁻¹
kon (Recombinant Human VEGF [5]): 37000 M⁻¹ s⁻¹

B2: DVD147 (bispecific antibody, human IgG1, kappa)
heavy: EVQLQESGPGLVRPSQTLSLTCTVSGYSITSDHAWSWVRQPPGRGLEWIGYISYSGITTYNPSLKSRVTMLRDTSKNQFSLRLSSVTAADTAVYYCARSLARTTAMDYWGQGSLVTVSSASTKGPEVQLVESGGGLVQPGGSLRLSCAASGFTFSNYWMNWVRQAPGKGLEWVAAINQDGSEKYYVGSVKGRFTISRDNAKNSLYLQMNSLRVEDTAVYYCVRDYYDILTDYYIHYWYFDLWGRGTLVTVSS[left out - human IgG1 constant region]
light: DIQMTQSPSSLSASVGDRVTITCRASQDISSYLNWYQQKPGKAPKLLIYYTSRLHSGVPSRFSGSGSGTDFTFTISSLQPEDIATYYCQQGNTLPYTFGQGTKVEIKRTVAAP[left out - about 100 residues][left out - about 100 residues]
notes: vectors V1, V2; also called IL-6R and IL-17A DVD-Ig
EC50 (Recombinant Human IL-17 [6]): 41 nM
EC50 [7]: 1.75 nM
FACS Geometric Mean (IL-6R on cells [8]): 10.1
IL-6 induced pSTAT3 in TF-1 cells, EC50 (IL-6R on cells [9]): 0.109 nM
Kd (Recombinant Human IL-17 [10]): 55.8 nM
koff (Recombinant Human IL-17 [10]): 0.002 s⁻¹
kon (Recombinant Human IL-17 [10]): 34600 M⁻¹ s⁻¹
Kd [11]: 0.263 nM
koff [11]: 0.000187 s⁻¹
kon [11]: 709000 M⁻¹ s⁻¹
IL-17 Neutralization Assay EC50 (HS27 cells, IL-6 secretion) (Recombinant Human IL-17 [12]): 6.7 nM

B3: DVD285 (bispecific antibody, human IgG1, kappa)
heavy: QVQLQQSGAELMKPGASVKLSCKATGYTFTGSWIEWIKQRPGHGLEWIGQILPGSGSAYYNEKFKGKATFTADTSSKTVYIQLISLTTEDSAIYYCAREDNYGSSSLAYWGQGTLLTVSAASTKGPEVTLRESGPGLVKPTQTLTLTCTLYGFSLSTSDMGVDWIRQPPGKGLEWLAHIWWDDVKRYNPALKSRLTISKDTSKNQVVLKLTSVDPVDTATYYCARTVSSGYIYYAMDYWGQGTLVTVSS[left out - human IgG1 constant region]
light: DILLTQSPAILSVSPGERVSFS[left out - about 80 residues]FGAGTKLELKRTVAAPDIQMTQSPSSLSASVGDRVTISCRASQDIRNYLNWYQQKPGKAPKLLIFYTSKLHSGVPSRFSGSGSGTDYTLTISSLQPEDIATYYCQQGLTPPLTFGGGTKVEIKRTVAAPSVFIFPPSDEQLKSGTASVVCLLNNFYPREAKVQWKVDNALQSGNSQESVTEQDSKDSTYSLSSTLTLSKADYEKHKVYACEVTHQGLSSPVTKSFNRGEC
notes: outer AB056, inner AB051; vectors V1, V2
EC50 (Recombinant Human IL-13 [13]): 492 nM
Kd (Recombinant Human IL-9): 0.0167 nM
koff (Recombinant Human IL-9): 7.5e-05 s⁻¹
kon (Recombinant Human IL-9): 4.51e+06 M⁻¹ s⁻¹
Kd (Recombinant Human IL-13 [14]): 1.02 nM
koff (Recombinant Human IL-13 [14]): 0.000105 s⁻¹
kon (Recombinant Human IL-13 [14]): 103000 M⁻¹ s⁻¹
IL-13 Neutralization Assay EC50 (A549 cells, hTARC) (Recombinant Human IL-13 [15]): 0.2 nM
